Patent publication US6846933B1, “Antimycobacterial compounds and method for making the same” (priority 2000, dated 2005)

Excerpt: A general procedure was developed to estimate the relative lipophilicities of compounds by observation of their partitioning between an aqueous solvent and water in biphasic liquid-liquid extraction. As depicted in FIG. 1, the ratio of amounts in each of the respective phases was obtained and compared to the ratio for INH as standard, viz., ratio is set to unity. The compounds of the invention have been prepared with lipophilicities several orders of magnitude greater than that of INH. The advent of a quantitative method for lipophilicity determinations has been particularly important in the examination of the compounds disclosed herein. It is unexpected that the compounds of the invention, such as the Schiff bases and oxadiazolines, have increases in molecular weights by a factor of as much as 2 or more with respect to isoniazid and also have increases in lipophilicities of as much as several orders of magnitude. For example, among the oxadiazolines, where substituent groups R1 or R2 may be aromatics substituted with polarizing functional groups, measured lipophilicities are unexpectedly high.
A general procedure was devised to estimate relative lipophilicities of the compounds of the invention by observation of their partitioning between an organic phase and water. Thus, to a weighed amount of compound (0.75 mmole) in a flat-bottomed Florence flask containing a stirring bar was delivered by pipet distilled water (5 mL) and also by pipet chloroform (5 mL). The flask was sealed with a cork and paraffin, and the contents were magnetically stirred vigorously for 30 minutes. The cork, paraffin and stirring bar were carefully removed, and the contents of the flask were transferred to a 60 mL separatory funnel. The layers were allowed to stand to achieve good separation. The layers were separated using the separatory funnel. Each layer was individually allowed to evaporate to dryness over night on a pre-weighed watchglass. The ratio of amounts of dry compound remaining after evaporation of the layers on the two watchglasses was obtained (chloroform to water). This ratio was then compared to the same ratio for isoniazid as standard, giving the estimate of relative lipophilicities. The lipophilicity comparison was expressed as • [Acmpd(CHCl3)/Acmpd(H2O): Ainh(CHCl3)/Ainh(H2O)], where • Acmpd(solvent) refers to the amount of compound in chloroform or water, as appropriate and • Ainf(solvent) refers to the amount of isonicotinic acid hydrazide in chloroform or water, as appropriate. Representative examples of the comparisons are provided in FIG. 1 and in the following Chart. Within the Chart, numbers refer to compounds derived from the individual examples of experimental procedures within each family. Chart. Quantitative Estimates of Relative Lipophilicities of the Compounds of the Invention Compound of Schiff Base Example (Relative Lipophilicity) • 43(200) • 45(45) • 47(316) • 48(566) • 49(433) • 51(400) • 52(189) Compound of Oxadiazoline Example (Relative Lipophilicity) • 4(35,667) • 8(1333) • 9(1426) • 10(3080) General Structural Outline for Schiff Base Synthesis [drawing 48]

First: CC(=O)N1N=C(c2ccncc2)OC1c1ccc(Cl)c(Cl)c1 (stereo not shown) [Oxadiazoline Example 10, 2-(3.4-Dichlorophenyl)-3-acetyl-5-(4-pyridyl)-1,3,4-oxadiazoline]
Second: CC(=O)N1N=C(c2ccncc2)OC1c1ccc(F)c(F)c1 (stereo not shown) [Oxadiazoline Example 9, 2-(3,4-Difluorophepyl)-3-acetyl-5-(4-pyridyl)-1,3,4-oxadiazoline]
The “Relative Lipophilicity” value of the first is higher: 3080 for the first, 1426 for the second.

Compared with O=C(NN=Cc1ccc(F)c(F)c1)c1ccncc1 [Schiff Base Example 51, Isonicotinoylhydrazone of 3,4-Difluorobenzaldehyde], O=C(NN=Cc1c(F)cccc1F)c1ccncc1 [Schiff Base Example 52, Isonicotinoylhydrazone of 2,6-Difluorobenzaldehyde] is lower in “Relative Lipophilicity” value: 400 for the first, 189 for the second.

Going from CC(=O)N1N=C(c2ccncc2)OC1c1ccccc1[N+](=O)[O-] (stereo not shown) [Oxadiazoline Example 8, 2-(2-Nitrophenyly)-3-acetyl-5-(4-pyridyl)-1,3,4-oxadiazoline] to O=C(NN=Cc1cccc([N+](=O)[O-])c1)c1ccncc1 [Schiff Base Example 43, Isonicotinoylhydrazone of 3-Nitrobenzaldehyde], the “Relative Lipophilicity” value falls from 1333 to 200.

First: O=C(NN=Cc1cccc(Cl)c1Cl)c1ccncc1 [Schiff Base Example 49, Isonicotinoylhydrazone of 2,3-Dichlorobenzaldehyde]
Second: O=C(NN=Cc1c(Cl)cccc1Cl)c1ccncc1 [Schiff Base Example 48, Isonicotinoylhydrazone of 2.6-Dichlorobenzaldehyde]
The “Relative Lipophilicity” value of the first is lower: 433 for the first, 566 for the second.

For O=C(NN=Cc1cc([N+](=O)[O-])ccc1Cl)c1ccncc1 [Schiff Base Example 45, Isonicotinoylhydrazone of 2-Chloro-5-nitrobenzaldehyde], the “Relative Lipophilicity” value was 45.

With CC(=O)N1N=C(c2ccncc2)OC1c1ccc(F)c(F)c1 (stereo not shown) [Oxadiazoline Example 9, 2-(3,4-Difluorophepyl)-3-acetyl-5-(4-pyridyl)-1,3,4-oxadiazoline] the “lipophilicity compared with INH (in words)” value was “some three orders of magnitude greater than that of INH”.
